Screen size: about 310,000 compounds; about 2,200 (0.71%) showed an effect of 50% or more. Effects have a minus sign here. Some of the results follow.
What follows are compounds tested against human ether-à-go-go-related gene (hERG) potassium channel (human, UniProt Q12809) (assay: primary screen, population patch clamp on CHO cells stably expressing hERG).
Sequence of human ether-à-go-go-related gene (hERG) potassium channel (Q12809 whole entry, looked up): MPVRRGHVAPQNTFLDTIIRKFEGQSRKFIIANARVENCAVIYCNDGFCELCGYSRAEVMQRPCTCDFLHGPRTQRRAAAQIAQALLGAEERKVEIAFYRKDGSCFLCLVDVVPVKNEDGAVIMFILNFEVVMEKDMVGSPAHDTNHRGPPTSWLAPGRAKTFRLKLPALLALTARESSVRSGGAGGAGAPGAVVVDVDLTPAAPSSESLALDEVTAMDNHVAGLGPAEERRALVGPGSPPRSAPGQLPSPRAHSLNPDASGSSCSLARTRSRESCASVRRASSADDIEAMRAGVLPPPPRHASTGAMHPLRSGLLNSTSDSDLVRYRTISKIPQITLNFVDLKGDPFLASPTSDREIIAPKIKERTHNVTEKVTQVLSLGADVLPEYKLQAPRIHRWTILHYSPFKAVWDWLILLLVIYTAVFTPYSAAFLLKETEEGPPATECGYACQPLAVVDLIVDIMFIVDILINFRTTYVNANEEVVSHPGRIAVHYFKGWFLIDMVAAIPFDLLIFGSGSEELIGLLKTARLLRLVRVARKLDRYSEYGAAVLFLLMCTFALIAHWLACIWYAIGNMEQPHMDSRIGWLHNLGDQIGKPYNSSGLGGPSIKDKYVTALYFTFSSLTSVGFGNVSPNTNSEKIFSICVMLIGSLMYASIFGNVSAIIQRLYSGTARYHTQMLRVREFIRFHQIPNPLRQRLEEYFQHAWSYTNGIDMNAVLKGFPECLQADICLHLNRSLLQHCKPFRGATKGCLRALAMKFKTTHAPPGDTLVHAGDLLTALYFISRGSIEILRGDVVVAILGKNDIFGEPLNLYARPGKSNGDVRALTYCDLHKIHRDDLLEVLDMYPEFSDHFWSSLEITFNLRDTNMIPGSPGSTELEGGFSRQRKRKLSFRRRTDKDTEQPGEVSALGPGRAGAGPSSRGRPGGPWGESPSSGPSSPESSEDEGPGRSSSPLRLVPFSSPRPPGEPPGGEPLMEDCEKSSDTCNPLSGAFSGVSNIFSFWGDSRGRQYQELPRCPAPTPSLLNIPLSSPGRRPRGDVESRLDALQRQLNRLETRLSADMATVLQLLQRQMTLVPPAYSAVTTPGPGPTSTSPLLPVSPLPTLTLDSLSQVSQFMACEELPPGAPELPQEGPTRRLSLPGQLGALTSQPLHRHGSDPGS
For `CCN1C(=O)CC(C(=O)OC)=C1C`, the “hERG current change (%, negative = inhibition) at 1uM” value was 16.2%. `CC1(C)NC(=O)N(CCOCCOc2ccccc2)C1=O` was tested, and the “hERG current change (%, negative = inhibition) at 1uM” value was 16.2%. In the case of `CCCOc1nnnn1-c1ccccc1`, the “hERG current change (%, negative = inhibition) at 1uM” value is reported as 7.94%. For `Cc1cc(NC(=O)CCC(=O)N(Cc2ccccc2)C(C(=O)NC2CCCC2)c2ccc(C)o2)no1` (stereo not shown), the “hERG current change (%, negative = inhibition) at 1uM” value was 4.27%. With `COc1ccc(-n2nc3c(c2NC(=O)C2CC2)CS(=O)(=O)C3)cc1` the “hERG current change (%, negative = inhibition) at 1uM” value was 13.5%. With `COc1ccc(NC(=O)CSCc2ccc(C#N)cc2)c(OC)c1` the “hERG current change (%, negative = inhibition) at 1uM” value was 3.47%. With `CCn1nc(C)cc1C(=O)N1CCCC(N2CCN(c3cccc(Cl)c3)CC2)C1` (stereo not shown) the “hERG current change (%, negative = inhibition) at 1uM” value was -3.51%. For `CCCc1nnc(SCC(=O)N2C(C)CCCC2C)n1CC` (stereo not shown), the “hERG current change (%, negative = inhibition) at 1uM” value was 5.25%. For `O=C(CSc1ccccn1)Nc1ccc(Cl)c([N+](=O)[O-])c1`, the “hERG current change (%, negative = inhibition) at 1uM” value was -3.54%. In the case of `CCOc1ccc(N(C(=O)CNC(=O)c2ccco2)C(C(=O)NC2CCCC2)c2ccco2)cc1` (stereo not shown), the “hERG current change (%, negative = inhibition) at 1uM” value is reported as 15.2%. In the case of `CCC1(c2ccc(F)cc2)NC(=O)N(CC(=O)NCC(=O)Nc2cccc(C)c2C)C1=O` (stereo not shown), the “hERG current change (%, negative = inhibition) at 1uM” value is reported as -0.296%. `COc1ccccc1OCC(=O)O/N=C(\N)c1ccccn1` was tested, and the “hERG current change (%, negative = inhibition) at 1uM” value was 11.1%. For `O=C(O)c1cc(S(=O)(=O)NC2CCCc3ccccc32)ccc1O` (stereo not shown), the “hERG current change (%, negative = inhibition) at 1uM” value was 11.9%. With `CC1(C)CC(N2CCC(=O)NC2=S)CC(C)(C)N1` the “hERG current change (%, negative = inhibition) at 1uM” value was 7.15%. In the case of `CCN(CC(=O)Nc1c(F)cccc1F)C(=O)COc1ccc2c(C)cc(=O)oc2c1`, the “hERG current change (%, negative = inhibition) at 1uM” value is reported as 1.9%. In the case of `O=c1[nH]c2ccccc2n1C1CCN(CCCC(c2ccc(F)cc2)c2ccc(F)cc2)CC1`, the “hERG current change (%, negative = inhibition) at 1uM” value is reported as -76.5%. `Cc1oc(-c2ccccc2F)nc1CN1CCC(C(=O)NCCC2=CCCCC2)CC1` was tested, and the “hERG current change (%, negative = inhibition) at 1uM” value was -51.1%. `Cn1ncc(Br)c1C(=O)Nc1ccc(Cl)cn1` was tested, and the “hERG current change (%, negative = inhibition) at 1uM” value was 5.06%. `CC(C)(C)NC(=O)CCN(/N=C/c1ccncc1)C1=NS(=O)(=O)c2ccccc21` was tested, and the “hERG current change (%, negative = inhibition) at 1uM” value was 5.78%. `Cc1ccc(S(=O)(=O)NCC2CCC(C(=O)NCCCOC(C)C)CC2)cc1` (stereo not shown) was tested, and the “hERG current change (%, negative = inhibition) at 1uM” value was 6.2%. In the case of `COc1cc2nc(N3CCN(C(=O)C4COc5ccccc5O4)CC3)nc(N)c2cc1OC.CS(=O)(=O)O` (stereo not shown), the “hERG current change (%, negative = inhibition) at 1uM” value is reported as -0.725%. `O=C(Cc1ccccc1Cl)N/N=C/c1cccnc1` was tested, and the “hERG current change (%, negative = inhibition) at 1uM” value was 8.88%. With `COc1ccc(NC(=S)NCCCN2CCOCC2)cc1` the “hERG current change (%, negative = inhibition) at 1uM” value was 9.83%. For `C=CCNC(=O)CSc1nnc(-c2ccccc2Cl)n1-c1c(C)n(C)n(-c2ccccc2)c1=O`, the “hERG current change (%, negative = inhibition) at 1uM” value was -11.3%. With `Cc1ccc(-c2cc(C(=O)N/N=C/C=C/c3ccccc3)n[nH]2)s1` the “hERG current change (%, negative = inhibition) at 1uM” value was 7.95%. In the case of `COc1ccc(NC(=O)CCNC(=O)Cn2cnc3sc4c(c3c2=O)CCCC4)cc1OC`, the “hERG current change (%, negative = inhibition) at 1uM” value is reported as 15.2%. For `C=CCn1c(-c2ccc([N+](=O)[O-])cc2)n[nH]c1=S`, the “hERG current change (%, negative = inhibition) at 1uM” value was 10.7%. With `O=S(=O)(c1ccc2c(c1)nc(COc1ccc(Cl)cc1)n2CC1CCCO1)N1CCOCC1` (stereo not shown) the “hERG current change (%, negative = inhibition) at 1uM” value was -19%. For `O=C1c2ccccc2C(=O)C12OC2c1ccc(Cl)cc1Cl` (stereo not shown), the “hERG current change (%, negative = inhibition) at 1uM” value was 10.9%. For `COC(=O)C(NC(=O)C(CC(C)C)NC(=O)C1CCC(C)CC1)C(C)C` (stereo not shown), the “hERG current change (%, negative = inhibition) at 1uM” value was 7.7%. With `Nc1nonc1-n1nnc(C(=O)N/N=C/c2ccc(Br)cc2)c1CSC1=NCCS1` the “hERG current change (%, negative = inhibition) at 1uM” value was 3.25%. `CCOC(=O)c1ccccc1NC(=O)CSc1nnc(C)c(=O)[nH]1` was tested, and the “hERG current change (%, negative = inhibition) at 1uM” value was 13.2%. `O=C(COn1nnc2ccc(S(=O)(=O)N3CCOCC3)cc21)Nc1c(F)c(F)c(F)c(F)c1F` was tested, and the “hERG current change (%, negative = inhibition) at 1uM” value was 7.05%. With `COc1ccc(NC(=O)C(=O)c2cn(CC(=O)N3CCCC3)c3ccccc23)c(OC)c1` the “hERG current change (%, negative = inhibition) at 1uM” value was 13.3%. For `O=C(CC12CC3CC(CC(Br)(C3)C1)C2)NC1=NCCS1`, the “hERG current change (%, negative = inhibition) at 1uM” value was 1.08%. With `C/[N+]([O-])=C\C1C(=O)CC(C)(C)CC1=O` the “hERG current change (%, negative = inhibition) at 1uM” value was 8.29%. `Cc1ccccc1-n1c(SCC(=O)N/N=C/c2ccccc2OCC(=O)O)nc2ccccc2c1=O` was tested, and the “hERG current change (%, negative = inhibition) at 1uM” value was 13.3%. With `Cc1nn(C(C)C(=O)O)c2ccccc12` (stereo not shown) the “hERG current change (%, negative = inhibition) at 1uM” value was 11.4%. With `CC1=NN(c2ccccc2)C(=O)/C1=C\c1cn(CCC#N)nc1-c1ccc(Cl)cc1` the “hERG current change (%, negative = inhibition) at 1uM” value was 6.87%. For `C[C@]12CCC3c4ccc(O)cc4CCC3C1CC/C2=N\N` (stereo partly shown), the “hERG current change (%, negative = inhibition) at 1uM” value was 13.7%. With `COc1cc(NC(=O)CCC(=O)O)nc(OC)n1` the “hERG current change (%, negative = inhibition) at 1uM” value was 9.33%. `Cc1ccc(CN2CCNC(=O)C2CC(=O)N(C)CCc2cnn(C)c2)cc1` (stereo not shown) was tested, and the “hERG current change (%, negative = inhibition) at 1uM” value was 4.98%. For `O=C1NC(=Nc2cccc(O)c2)S/C1=C\c1cccc([N+](=O)[O-])c1`, the “hERG current change (%, negative = inhibition) at 1uM” value was 22.1%. For `CCc1ccccc1NC(=O)CSc1nc2n[nH]c(C)c2c(=N)n1-c1cccc(OC)c1`, the “hERG current change (%, negative = inhibition) at 1uM” value was -7.41%. In the case of `C#CCOCCOCCOCCNc1nc(N2CCOCC2)nc(N2CCN(C(=O)[C@H]([C@@H](C)CC)n3cc([C@@H](N)CC(C)C)nn3)CC2)n1.Cl`, the “hERG current change (%, negative = inhibition) at 1uM” value is reported as 7.82%. For `O=C(c1cc(S(=O)(=O)N2CCOCC2)ccc1F)N(Cc1nnc(-c2ccccc2Cl)o1)C1CC1`, the “hERG current change (%, negative = inhibition) at 1uM” value was 13.8%. In the case of `CCc1noc(C)c1C(=O)N(CCOC)c1c(N)n(CC(C)C)c(=O)[nH]c1=O`, the “hERG current change (%, negative = inhibition) at 1uM” value is reported as 15.7%. With `COc1ccccc1CCNC(=O)c1c(C)nn(CC(C)C)c1Cl` the “hERG current change (%, negative = inhibition) at 1uM” value was 11.1%. With `C=CCNC(=S)NNC(=O)CCC(O)CCCCC` (stereo not shown) the “hERG current change (%, negative = inhibition) at 1uM” value was 11.2%. With `COc1cc(C)c(CN2CCN(S(=O)(=O)c3ccc(Cl)s3)CC2)cc1OC` the “hERG current change (%, negative = inhibition) at 1uM” value was 4.58%. For `COc1ccc(S(=O)(=O)N2CCCC2)cc1NC(=O)c1ccccc1`, the “hERG current change (%, negative = inhibition) at 1uM” value was 10.3%. In the case of `Cc1cc(C)cc(SCc2noc(C(=O)NC(C)C)c2C(=O)O)c1`, the “hERG current change (%, negative = inhibition) at 1uM” value is reported as 23.7%. With `CC(=O)Nc1ccc(N2C(=O)CSC2c2ccccc2[N+](=O)[O-])cc1` (stereo not shown) the “hERG current change (%, negative = inhibition) at 1uM” value was 21.1%. `Cc1ccc(F)cc1NCC(=O)Nc1ccc(Cl)cc1F` was tested, and the “hERG current change (%, negative = inhibition) at 1uM” value was 9.79%. `O=C(NCCCN1CCN(c2ccc(F)cc2)CC1)c1cccc(N2CCCC2=O)c1` was tested, and the “hERG current change (%, negative = inhibition) at 1uM” value was -24.2%.

Source: publication PMC4336329 (PLoS ONE, 2015)
